Results: publication PMC9911399, “Two distinct binding modes provide the RNA-binding protein RbFox with extraordinary sequence specificity”
Residue numbers refer to the chain shown, from its start. Some of the results follow.

T1: RBFOX1 RRM RbFoxmut (Fox-RRM*) (Homo sapiens, UniProt Q9NWB1 109-208, R118D;E147R;N151S;E152T)
T1 sequence: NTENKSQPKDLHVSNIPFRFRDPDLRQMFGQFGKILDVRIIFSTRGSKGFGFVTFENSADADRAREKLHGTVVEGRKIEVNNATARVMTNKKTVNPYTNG

B1: UAGCUAA (DNA:RNA)
RNA: GGGAGACCGGAAUUCAGAUUGUCCUAGCUAAUUAAAUCCCGUCGUAGCCACCA
DNA 1: CAATCTGAATTCCGGTCTCCC
DNA 2: TGGTGGCTACGACGGGATT
B2: UCCACUA (DNA:RNA)
RNA: B1 RNA with A26C, G27C, C28A, U29C, A30U
DNA 1: CAATCTGAATTCCGGTCTCCC
DNA 2: TGGTGGCTACGACGGGATT
B3: UAGAGAC (DNA:RNA)
RNA: B1 RNA with C28A, U29G, A31C
DNA 1: CAATCTGAATTCCGGTCTCCC
DNA 2: TGGTGGCTACGACGGGATT
B4: GUUUUCG (DNA:RNA)
RNA: B1 RNA with U25G, A26U, G27U, C28U, A30C, A31G
DNA 1: CAATCTGAATTCCGGTCTCCC
DNA 2: TGGTGGCTACGACGGGATT
B5: GUCAAGU (DNA:RNA)
RNA: GGGAGACCGGAAUUCAGAUUGUCCGUCAAGUUUAAAUCCCGUCGUAGCCACCA
DNA 1: CAATCTGAATTCCGGTCTCCC
DNA 2: TGGTGGCTACGACGGGATT
B6: AGUGACU (DNA:RNA)
RNA: B5 RNA with G25A, U26G, C27U, A28G, G30C
DNA 1: CAATCTGAATTCCGGTCTCCC
DNA 2: TGGTGGCTACGACGGGATT
B7: UCCGGUU (DNA:RNA)
RNA: B5 RNA with G25U, U26C, A28G, A29G, G30U
DNA 1: CAATCTGAATTCCGGTCTCCC
DNA 2: TGGTGGCTACGACGGGATT
B8: UUACCGU (DNA:RNA)
RNA: B5 RNA with G25U, C27A, A28C, A29C
DNA 1: CAATCTGAATTCCGGTCTCCC
DNA 2: TGGTGGCTACGACGGGATT
B9: UAUGGCA (DNA:RNA)
RNA: B1 RNA with G27U, C28G, U29G, A30C
DNA 1: CAATCTGAATTCCGGTCTCCC
DNA 2: TGGTGGCTACGACGGGATT
B10: CUGAAAA (DNA:RNA)
RNA: B5 RNA with G25C, C27G, G30A, U31A
DNA 1: CAATCTGAATTCCGGTCTCCC
DNA 2: TGGTGGCTACGACGGGATT
B11: UAUCCAC (DNA:RNA)
RNA: B1 RNA with G27U, U29C, A31C
DNA 1: CAATCTGAATTCCGGTCTCCC
DNA 2: TGGTGGCTACGACGGGATT
B12: GCGUAUA (DNA:RNA)
RNA: B5 RNA with U26C, C27G, A28U, G30U, U31A
DNA 1: CAATCTGAATTCCGGTCTCCC
DNA 2: TGGTGGCTACGACGGGATT
B13: CUCUUUU (DNA:RNA)
RNA: B5 RNA with G25C, A28U, A29U, G30U
DNA 1: CAATCTGAATTCCGGTCTCCC
DNA 2: TGGTGGCTACGACGGGATT
B14: CAUGUAG (DNA:RNA)
RNA: B1 RNA with U25C, G27U, C28G, A31G
DNA 1: CAATCTGAATTCCGGTCTCCC
DNA 2: TGGTGGCTACGACGGGATT
B15: AGAUGGU (DNA:RNA)
RNA: B5 RNA with G25A, U26G, C27A, A28U, A29G
DNA 1: CAATCTGAATTCCGGTCTCCC
DNA 2: TGGTGGCTACGACGGGATT
B16: UUAAUUA (DNA:RNA)
RNA: B1 RNA with A26U, G27A, C28A, A30U
DNA 1: CAATCTGAATTCCGGTCTCCC
DNA 2: TGGTGGCTACGACGGGATT
B17: UGACUUA (DNA:RNA)
RNA: B1 RNA with A26G, G27A, A30U
DNA 1: CAATCTGAATTCCGGTCTCCC
DNA 2: TGGTGGCTACGACGGGATT
B18: AUAGGAA (DNA:RNA)
RNA: B1 RNA with U25A, A26U, G27A, C28G, U29G
DNA 1: CAATCTGAATTCCGGTCTCCC
DNA 2: TGGTGGCTACGACGGGATT
B19: AACCAGA (DNA:RNA)
RNA: B5 RNA with G25A, U26A, A28C, U31A
DNA 1: CAATCTGAATTCCGGTCTCCC
DNA 2: TGGTGGCTACGACGGGATT
B20: AGUGUUG (DNA:RNA)
RNA: B1 RNA with U25A, A26G, G27U, C28G, A30U, A31G
DNA 1: CAATCTGAATTCCGGTCTCCC
DNA 2: TGGTGGCTACGACGGGATT

Each binder was assayed against T1, RBFOX1 RRM RbFoxmut (Fox-RRM*) (assay: EMSA; HiTS-Eq, 1 nM pool, 10 min; buffer printed only for the single-RNA assays: 10 mM Tris pH 7.5, 150 mM NaCl, 3.4 mM EDTA, 0.001% NP-40, 30 C). Details: tags: His6 N-terminal (pET28a); label: 5' 32P.
How it was run: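 A pool of RNA with 7 randomized nucleotides, 5′-radiolabelled and with DNA-annealed flanks, was equilibrated at 1 nM for 10 min in 50 µL with purified RbFox RRM, wild type or mutant, across increasing protein concentrations. Free RNA was separated by 8% native PAGE, excised, reverse-transcribed, barcoded by PCR and sequenced. Relative association constants were obtained from read-count changes of each RNA species versus the control reaction and normalised to the cognate motif.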

Binder	binding signal
B1	0.0901 KA relative to UGCAUGU
B2	0.062 KA relative to UGCAUGU
B3	0.0828 KA relative to UGCAUGU
B4	0.0798 KA relative to UGCAUGU
B5	0.138 KA relative to UGCAUGU
B6	0.0797 KA relative to UGCAUGU
B7	0.0485 KA relative to UGCAUGU
B8	0.0772 KA relative to UGCAUGU
B9	0.0915 KA relative to UGCAUGU
B10	0.0537 KA relative to UGCAUGU
B11	0.0934 KA relative to UGCAUGU
B12	0.135 KA relative to UGCAUGU
B13	0.0991 KA relative to UGCAUGU
B14	0.161 KA relative to UGCAUGU
B15	0.117 KA relative to UGCAUGU
B16	0.102 KA relative to UGCAUGU
B17	0.108 KA relative to UGCAUGU
B18	0.0888 KA relative to UGCAUGU
B19	0.107 KA relative to UGCAUGU
B20	0.186 KA relative to UGCAUGU
